Data reported in the supplement of paper PMC12230231.
± gives the standard deviation of the averaged measurements. Restriction of a single-cycle SIVsab GFP reporter by TRIM5α v1-loop variants in CRFK cells. Human variants: read share among cells still uninfected after two challenges over input, higher = gained restriction. Rhesus variants: share among infected cells over input, higher = lost restriction. Reporter dose not given per row. No active / inactive call per row; the paper calls a change when both replicates lie above its controls (mean + 2 SD of stop or wild-type variants, or the top frameshift score). Residues outside the varied loop are taken from Swiss-Prot. The paper reads the human single-substitution scores as noise; they and the rhesus combinations repeat poorly (rank correlation 0.3 to 0.4), indel scores repeat only for the top variants, rhesus substitutions well (0.9).

Test system: SIVsab (simian immunodeficiency virus of sabaeus monkeys), single-cycle GFP reporter, in CRFK cells
Test: enrichment among uninfected cells over input (fold); higher = stronger restriction
Experimental: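 Pools of CRFK cells expressing variants of the TRIM5α v1 loop were challenged with the single-cycle reporter, sorted by GFP and sequenced; mean of two replicates.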

[1] = library: human / rhesus combinations

| Sequence | enrichment (library: insertions and deletions) | enrichment [1] |
| --- | --- | --- |
| MASGILVNVKEEVTCPICLELLTQPLSLDCGHSFCQACLTANHKKSMLDKGESSCPVCRISYQPENIRPNRHVANIVEKLREVKLSPEGQKVDHCARHGEKLLLFCQEDGKVICWLCERSQEHRGHHTFLTEEVAREYQVKLQAALEMLRQKQQEAEELEADIREEKASWKTQIQYDKTNVLADFEQLRDILDWEESNELQNLEKEEEDILKSLTNSETEMVQQTQSLRELISDLEHRLQGSVMELLQGVDGVIKRTENVTLKKPETFPKNQRRVFRAPDLKGMLEVFRELTDVRRYWVDVTVAPNNISCAVISEDKRQVSSPKPQIIYGARGTRYIYGARGTRYQTFVNFNYCTGILGSQSITSGKHYWEVDVSKKTAWILGVCAGFQPDAMCNIEKNENYQPKYGYWVIGLEEGVKCSAFQDSSFHTPSVPFIVPLSVIICPDRVGVFLDYEACTVSFFNITNHGFLIYKFSHCSFSQPVFPYLNPRKCGVPMTLCSPSS [human TRIM5α, 9-codon duplication at 328] | 0.51 ± 0.17 | – |
| MASGILVNVKEEVTCPICLELLTQPLSLDCGHSFCQACLTANHKKSMLDKGESSCPVCRISYQPENIRPNRHVANIVEKLREVKLSPEGQKVDHCARHGEKLLLFCQEDGKVICWLCERSQEHRGHHTFLTEEVAREYQVKLQAALEMLRQKQQEAEELEADIREEKASWKTQIQYDKTNVLADFEQLRDILDWEESNELQNLEKEEEDILKSLTNSETEMVQQTQSLRELISDLEHRLQGSVMELLQGVDGVIKRTENVTLKKPETFPKNQRRVFRAPDLKGMLEVFRELTDVRRYWVDVTVAPNNISCAVISEDKRQVSSPKPQIIYGARGTRFQTLTNFNYCTGILGSQSITSGKHYWEVDVSKKTAWILGVCAGFQPDAMCNIEKNENYQPKYGYWVIGLEEGVKCSAFQDSSFHTPSVPFIVPLSVIICPDRVGVFLDYEACTVSFFNITNHGFLIYKFSHCSFSQPVFPYLNPRKCGVPMTLCSPSS [human TRIM5α, 330-340 = GARGTRFQTLT] | – | 0.00922 ± 0.0089 |
| MASGILVNVKEEVTCPICLELLTQPLSLDCGHSFCQACLTANHKKSMLDKGESSCPVCRISYQPENIRPNRHVANIVEKLREVKLSPEGQKVDHCARHGEKLLLFCQEDGKVICWLCERSQEHRGHHTFLTEEVAREYQVKLQAALEMLRQKQQEAEELEADIREEKASWKTQIQYDKTNVLADFEQLRDILDWEESNELQNLEKEEEDILKSLTNSETEMVQQTQSLRELISDLEHRLQGSVMELLQGVDGVIKRTENVTLKKPETFPKNQRRVFRAPDLKGMLEVFRELTDVRRYWVDVTVAPNNISCAVISEDKRQVSSPKPQIIYQAPGTRYTFPTLVNFNYCTGILGSQSITSGKHYWEVDVSKKTAWILGVCAGFQPDAMCNIEKNENYQPKYGYWVIGLEEGVKCSAFQDSSFHTPSVPFIVPLSVIICPDRVGVFLDYEACTVSFFNITNHGFLIYKFSHCSFSQPVFPYLNPRKCGVPMTLCSPSS [human TRIM5α, 330-340 = QAPGTRYTFPTLV] | – | 0.447 ± 0.14 |
| MASGILVNVKEEVTCPICLELLTQPLSLDCGHSFCQACLTANHKKSMLDKGESSCPVCRISYQPENIRPNRHVANIVEKLREVKLSPEGQKVDHCARHGEKLLLFCQEDGKVICWLCERSQEHRGHHTFLTEEVAREYQVKLQAALEMLRQKQQEAEELEADIREEKASWKTQIQYDKTNVLADFEQLRDILDWEESNELQNLEKEEEDILKSLTNSETEMVQQTQSLRELISDLEHRLQGSVMELLQGVDGVIKRTENVTLKKPETFPKNQRRVFRAPDLKGMLEVFRELTDVRRYWVDVTVAPNNISCAVISEDKRQVSSPKPQIIYGARGTRFTFQTLVNFNYCTGILGSQSITSGKHYWEVDVSKKTAWILGVCAGFQPDAMCNIEKNENYQPKYGYWVIGLEEGVKCSAFQDSSFHTPSVPFIVPLSVIICPDRVGVFLDYEACTVSFFNITNHGFLIYKFSHCSFSQPVFPYLNPRKCGVPMTLCSPSS [human TRIM5α, 330-340 = GARGTRFTFQTLV] | – | 0.274 ± 0.073 |
